# Reference: PubChem BioAssay AID686979 (National Center for Advancing Translational Sciences (NCATS), 2013)
# Several values for one entry are separate records, joined by “and”; a condition that tells them apart may be missing. Equal entries are not always repeated. Screen size: about 420,000 compounds; about 50,000 (12%) were called active. This list was built around the results that the source calls inconclusive (neither active nor inactive); the mix of calls is not that of the screen. Calls come from the whole dose curve; as a rule, active = well fitted inhibition curve with a large enough effect; inconclusive = small, poorly fitted or top-dose-only effect; inactive = flat fitted curve, though single readings scatter. Potencies of inconclusive entries are left out as doubtful fits.
# Assay: qHTS for Inhibitors of human tyrosyl-DNA phosphodiesterase 1 (TDP1): qHTS in cells in presence of CPT; note: nearly all actives have a fitted effect of over 55% in size
# Details: chicken DT40 Tdp1-/-;hTDP1 cells + 20 nM CPT, ATP luminescence, 48 h; activity change, negative = growth inhibition: at 46.2 µM (top of the series) unless noted
# Procedure, shortened: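 Cell growth measured by CellTiter-Glo luminescence after a minimum 48 h, 37 C compound exposure with 20 nM CPT in Tdp1-knockout DT40 cells stably expressing hTDP1, seeded 400/well; qHTS titration format.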
# % is set by controls: 0 for no effect and ±100 for the full control effect; potency is the fitted concentration of half-maximal effect; tags give direction and shape of the fitted curve.
SMILES,"activity change, negative = growth inhibition",Potency
O=C(N/N=C/c1ccc([N+](=O)[O-])o1)c1cc([N+](=O)[O-])cc([N+](=O)[O-])c1O,inactive: -39.1%,
O=C1NC(=O)N(Cc2ccc(F)cc2)C(=O)/C1=C\c1ccc([N+](=O)[O-])s1,,active: 13 µM
CN(C)C(=O)Oc1ccc(Br)cc1C(=O)Nc1ccc(F)c(Cl)c1,,active: 23.1 µM
CC(C)n1c(/C=C/[C@@H](O)C[C@@H](O)CC(=O)O)c(-c2ccc(F)cc2)c2ccccc21,,active: 5.96 µM and active: 14.6 µM
Cc1ccc(-c2nn3c(=O)cc(CN4CCN(C(=O)COc5ccc(C)c(C)c5)CC4)nc3s2)cc1,,"inconclusive [inhibitor, single point]"
COc1cc(OC)c(OC)cc1CNCCc1ccc(F)cc1,,"inconclusive [inhibitor, single point]"
COC(=O)C1=C(c2cccc(C#N)c2)C[C@@H]2CC[C@H]1N2C(=O)N1CCCC1,,"inconclusive [inhibitor, single point]"
Cc1ccc(-n2nc3c(=O)n(CC(=O)Nc4ccccc4F)nc(C)c3c2C)c(C)c1,,"inconclusive [inhibitor, single point]"
O=C1CN=C(c2ccccc2)c2ccccc2N1Cc1ccc(C(F)(F)F)cc1,,active: 22.4 µM
COc1ccc(-n2nnnc2C(CCc2ccccc2)N2CCC3(CC2)C(=O)NCN3c2ccccc2)cc1 (stereo not given),,"inconclusive [inhibitor, partial curve, poor fit]"
CC1CCCN(C(=O)c2ccc(N3CC4CC(C3)c3cccc(=O)n3C4)c([N+](=O)[O-])c2)C1 (stereo not given),inactive: -13.3%,
CCCCCCCn1c(=O)c(C(=O)Nc2cnccn2)c(O)c2ccccc21,,active: 0.82 µM
Cc1ccc(NCc2cccn2-c2nnc(N3CCC(C(=O)NCc4ccc(OC(C)C)cc4)CC3)s2)cc1,,"inconclusive [inhibitor, single point]"
COc1ccc(Nc2c(-c3cc(Br)ccc3O)nc3ncccn23)cc1OC,,active: 18.4 µM
O=c1[nH]c(O)c(N=Nc2ccc(SC(F)F)cc2)c(=O)[nH]1,inactive: -6.8%,
COc1ccc(S(=O)(=O)N(CC(=O)NCc2ccccc2OC)c2ccc(C)cc2)cc1,,"inconclusive [inhibitor, partial curve, poor fit]"
c1ccc(C2CC3CC(c4ccco4)N2O3)cc1 (stereo not given),inactive: -0.595%,
Cc1nc(-c2cccc(CN(C)C(=O)Oc3ccc([N+](=O)[O-])cc3)c2)no1,,"inconclusive [inhibitor, single point]"
CCCC[C@H]1C(=O)O[C@H](C)[C@H](NC(=O)c2cccc(NC=O)c2OC)C(=O)O[C@@H](C)[C@@H]1OC(=O)CC(C)C,,"inconclusive [inhibitor, partial curve, poor fit]"
CCC1Nc2ncnc(N3CCN(c4ccccn4)CC3)c2N(Cc2ccc(Br)cc2)C1=O (stereo not given),,"inconclusive [inhibitor, single point]"
O=C1CSC(c2ccccc2Cl)c2cc(Cl)ccc2N1 (stereo not given),,"inconclusive [inhibitor, single point]"
CC(C)CCC(=O)O[C@H]1CC[C@H]2[C@@H]3CCC4=CC(=O)CC[C@]4(C)[C@H]3CC[C@]12C,inactive: -5.82%,
O=C(Cc1ccccc1)N1CCN(Cc2cccnc2)CC1,inactive: -5.91%,

SMILES,"activity change, negative = growth inhibition",Potency
Cc1ccc2c(c1)cc(C(=O)Nc1ccccc1C)n2C,,"inconclusive [inhibitor, full curve, poor fit]"
CCCC12CN3CC(C)(CN(C1)C3c1c(C)[nH]c(=O)[nH]c1=O)C2=O (stereo not given),inactive: -3.35%,
O=S(=O)(c1ccc(Cl)cc1)N1CN2CCN(C2)C1,,active: 23.1 µM
O=c1[nH]c(=O)n(CCC2=CCCCC2)c(O)c1C=NC1CCN(Cc2ccccc2)CC1,,active: 14.6 µM
O=C1CCC2(O)C3Cc4ccc(O)c5c4C2(CCN3Cc2ccoc2)C1O5 (stereo not given),inactive: -10.9%,
CCCCn1c(CN2CCN(c3ccc(F)cc3)CC2)nc2c1c(=O)n(C)c(=O)n2C,,active: 1.64 µM
C=CCN(CC=C)Cc1c[nH]c2ccccc12,,active: 11.6 µM
CCOC(=O)C1(c2ccccc2)CCN(CCC(=O)Nc2ccc(C(=O)OC)cc2)CC1,,active: 20.6 µM
CC(C)=O,,"inconclusive [inhibitor, single point]"
CC1(C)CC(=O)c2cc(OCC(=O)N3CCN(Cc4ccccc4)CC3)ccc2O1,inactive: 6.75%,
CCCCCN1C(=O)c2cc(OC)ccc2[C@@]2(C(=O)OCC)Cc3cc(OC)ccc3[C@@H]12,,active: 10.3 µM
COC(=O)C1=C(c2cccc(OC)c2OC)C[C@@H]2CC[C@H]1N2C(=O)N1CCCCC1,,"inconclusive [inhibitor, partial curve, poor fit]"
CCC1(C)OC(c2ccccc2)=C/C(=C/C=C2C(=O)NC(=O)NC2=O)O1 (stereo not given),,"inconclusive [inhibitor, single point]"
CCOc1cc(C=C2C(=O)NC(=S)NC2=O)ccc1O,inactive: -28.8%,
Cc1ccc(CN2C3CCCC2CC(NC(=S)NCc2ccccc2)C3)cc1 (stereo not given),,"inconclusive [inhibitor, single point]"
Fc1ccc(CNCCc2ccccc2)cc1,,"inconclusive [inhibitor, single point]"
O=C1c2ccccc2-n2nncc2C2c3cc(Br)ccc3CCN12 (stereo not given),,"inconclusive [inhibitor, single point]"
Cc1ccc(S(=O)(=O)NC(=O)NC2CCCC2)cc1,inactive: 4.78%,
C=CCN(CC(=O)c1sc(C(=O)OCC)nc1C)c1cccc(Br)c1,,"inconclusive [inhibitor, single point]"
CCCc1nc2ccc(Br)cc2c(=O)n1-c1ccc([N+](=O)[O-])c(C(F)(F)F)c1,,"inconclusive [inhibitor, single point]"
O=C(N/N=C/c1c(O)n(CCC2=CCCCC2)c(=S)[nH]c1=O)c1ccccc1,,"inconclusive [inhibitor, single point]"
Cc1ccc(N2C(=O)NC(=O)C(CCc3ccccn3)(Cc3cccc(Cl)c3Cl)C2=O)cc1 (stereo not given),inactive: -9.2%,
